Experimental findings from PubChem BioAssay AID1508624 (National Center for Advancing Translational Sciences (NCATS), 2021) are described below.

Among all 48,000 compounds or so, about 120 (0.25%) were called active. Roughly 4% stayed inconclusive and do not appear here. Calls follow the shape of the dose curve; as a rule, active = well fitted activation curve with a large enough effect; inconclusive = small, poorly fitted or top-dose-only effect, or another doubt; inactive = no such curve, though single readings can be large or run the other way. Some of the results follow.

The nature of this assay: Primary qHTS for Identification of Small Molecule Activators of Huntingtin-Antisense Promoter Activity. Also: nearly all actives have a fitted effect of over 55% in size. The settings on record: HEK293 HTT-AS promoter firefly luciferase reporter (activity 0% = vehicle and -100% = no light), 24 h; series mostly up to 57.5 µM; activity change, positive = activation: at the top concentration. In outline:
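Luminescence was read after Dual-Glo reagent and a 10 min room-temperature incubation. Values were normalized to vehicle (0% activity) and zero RLU (-100% activity). Reporter HEK293 cells had been exposed to compounds (up to 57.5 uM final) for 24 h.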
For orientation: In qHTS, concentration-response curves come from the screen itself.
Regarding `CCCN(CCC)C(=O)C(Cc1ccccc1)NS(=O)(=O)c1ccc2c(c1)c(=O)n(C)c(=O)n2C` (stereo not drawn), the “activity change, positive = activation” value is inactive: -13.7%.
To `CSc1ccc(-c2nc3cccc(C)n3c2Nc2ccc(Cl)cc2)cc1` belongs inactive: -29.5%; to `COc1ccccc1N1C(=O)N(CC(=O)C(C)(C)C)c2ccccc2S1(=O)=O`, inactive: -23.1%; to `CCCCC(CC)COC(=O)c1ccc(N(C)C)cc1` (stereo not drawn), inactive: 2.75%.
Regarding `COc1cc(O)c(C(=O)c2ccccc2)cc1S(=O)(=O)O`, the “activity change, positive = activation” value was inactive: 3.32%.
To `CN(C)CCNC(=O)c1ccc(-c2nn(C)c(=O)c3ccccc23)cc1` belongs inactive: -17.2%; to `O=C1CN(C(=O)COc2ccc(Cl)cc2Cl)C(c2ccccc2)c2cc(F)ccc2N1` (stereo not drawn), inactive: -38.9%.
To `Nc1cccc2c1C(=O)N(C1CCC(=O)NC1=O)C2=O` (stereo not drawn) belongs inactive: -8.71%; to `COc1cc(OC)cc(OC)c1`, inactive: 0.711%.
With `O=C(O)Cc1ccccc1Oc1ccc(Cl)cc1Cl` the figure was inactive: -7.58%.
As for `CCOc1ccc(CCNC(=O)c2nn(C)c3c2CSc2ccccc2-3)cc1`, the “activity change, positive = activation” value is inactive: -18.9%.
In the case of `O=C(O)c1ccc(NC(=O)c2cc(S(=O)(=O)N3CCCCC3)c(Cl)cc2Cl)cc1`, the “activity change, positive = activation” value is inactive: -17.5%.
To `Cc1cccc(C(=O)NNc2ncnc3c2cnn3-c2ccc(C)cc2C)c1` belongs inactive: 8.19%; to `CCOc1ccccc1CNC(=O)CCCn1ccc2cc(S(=O)(=O)N3CCCC3)ccc21`, inactive: -18.5%; to `COc1cccc(C(=O)Nc2nnc(S(=O)(=O)N3CCCC3)s2)c1`, inactive: -2.72%.
`CC(C)c1ccc(S(=O)(=O)c2cnc(SCC(=O)Nc3ccc4c(c3)OCCO4)[nH]c2=O)cc1`: the “activity change, positive = activation” value was inactive: -5.83%.
With `Cc1ccc(OCC(=O)Nc2nnc(S(=O)(=O)N3CCCCCC3)s2)cc1` the figure was inactive: -15.8%.
For the compound `O=C(NCc1ccc(F)cc1)C1(c2cccs2)CCOCC1`, the “activity change, positive = activation” value was inactive: -18.6%.
To `COc1cc(Nc2nc3c(S(=O)(=O)c4ccc(C)c(C)c4)nnn3c3ccsc23)cc(OC)c1` belongs inactive: -16.2%; to `CCOC(=O)c1c(NC(=O)C2c3ccccc3Oc3ccccc32)sc(C)c1CC`, inactive: -23.3%; to `CCn1c(=O)cc(OCC(=O)N(C)c2cc(Cl)ccc2C)c2ccccc21`, inactive: -15.7%.
With `COC(=O)c1ccccc1NC(=O)N1CCC(N2CCN(Cc3ccc(F)cc3)C(=O)C2=O)CC1` the figure was inactive: -4.26%; with `CCOc1ccccc1NC(=O)CSc1nccn1-c1cccc(C)c1`, inactive: -21%; with `COc1ccc2c(Sc3ccc(C)cc3)c(C(=O)NC(C)C)[nH]c2c1`, inactive: 6.31%.
Turning to `CCOc1ccc(-n2c(=O)c3c(C)c(C)sc3n(CC(=O)NCCc3ccccc3)c2=O)cc1`, the “activity change, positive = activation” value was inactive: 11.8%.
To `Cc1ccc(S(=O)(=O)C(CNC(=O)C(=O)NCCc2ccccc2)c2cccs2)cc1` (stereo not drawn) belongs inactive: -46.3%; to `O=c1oc2ccccc2c(N2CCN(c3ccccc3F)CC2)c1CN1CCCC1`, inactive: -13.6%.
To `CCOc1ccc(C2CC(=O)c3c([nH]c(C(=O)OCC4CCCCC4)c3C)C2)cc1` (stereo not drawn) belongs inactive: -9.86%.
